# Experimental data from the supplement of paper PMC3334620.
# The full ranking holds about 33,000 sequences; the median of “E-score (-0.5 to 0.5)” is about -0.012, and the highest 2% start at about 0.29. The list shows a part of the results.
# Target: T1, Ybr033w (UniProt P38073)
# T1 sequence: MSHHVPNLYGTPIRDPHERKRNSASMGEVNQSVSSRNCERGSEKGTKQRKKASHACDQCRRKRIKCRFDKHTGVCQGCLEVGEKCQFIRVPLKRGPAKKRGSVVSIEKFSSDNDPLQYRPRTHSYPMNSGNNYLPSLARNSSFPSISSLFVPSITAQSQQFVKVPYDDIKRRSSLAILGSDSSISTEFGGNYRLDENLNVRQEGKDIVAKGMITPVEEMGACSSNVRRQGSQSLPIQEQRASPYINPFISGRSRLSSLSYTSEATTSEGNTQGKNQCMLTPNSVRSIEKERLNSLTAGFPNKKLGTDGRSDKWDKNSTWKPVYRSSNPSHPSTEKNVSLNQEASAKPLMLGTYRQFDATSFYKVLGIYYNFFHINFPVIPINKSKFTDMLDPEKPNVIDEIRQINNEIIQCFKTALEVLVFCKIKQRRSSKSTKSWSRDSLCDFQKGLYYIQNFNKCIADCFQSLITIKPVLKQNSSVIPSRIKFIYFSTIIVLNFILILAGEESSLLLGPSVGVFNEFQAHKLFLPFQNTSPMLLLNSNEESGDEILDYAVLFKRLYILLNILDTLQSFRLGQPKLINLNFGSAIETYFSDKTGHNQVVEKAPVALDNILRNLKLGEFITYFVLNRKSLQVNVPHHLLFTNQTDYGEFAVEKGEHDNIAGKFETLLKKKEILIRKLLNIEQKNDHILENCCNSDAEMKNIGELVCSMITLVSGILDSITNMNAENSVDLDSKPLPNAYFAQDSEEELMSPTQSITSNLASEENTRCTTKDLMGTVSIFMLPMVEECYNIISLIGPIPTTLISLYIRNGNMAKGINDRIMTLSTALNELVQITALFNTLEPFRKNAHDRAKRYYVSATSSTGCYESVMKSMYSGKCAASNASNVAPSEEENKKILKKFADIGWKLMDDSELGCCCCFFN
# Test: PBM E-score (8-mer binding enrichment) (E-score (-0.5 to 0.5)); higher = stronger / more preferred TF binding; most listed sequences are background and not binding sites
# Conditions: protein concentration: 200 nM; construct: GST-full length
# Method in brief: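 GST-tagged yeast TFs (full-length or DNA-binding domain) were made by PURExpress in vitro transcription/translation and applied at about 100-200 nM to universal all-10-mer Agilent arrays. The arrays were made double-stranded by primer extension, on fresh or once-stripped slides. Bound protein was detected with fluorescent anti-GST, and scans were normalised with masliner. Each ungapped eight-base word, pooled with its reverse complement, received an E-score (modified Wilcoxon-Mann-Whitney statistic) from the Universal PBM Analysis Suite.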
row,Sequence,PBM E-score
1,ATTAGGAC,-0.0862
2,GCACCAGC,-0.187
3,GTAAACTA,0.219
4,GCCGCTCA,-0.195
5,CGGCCCTA,-0.113
6,GTGTTCCA,-0.0466
7,CCAAGTTC,0.00648
8,AGAGGTGA,0.0959
9,CTTAGTAC,0.0947
10,GCACCAAA,0.125
11,ATCCAGAC,0.173
12,GAAAACAC,0.131
13,ATGGAACG,-0.152
14,AGTCAACG,-0.167
15,AGTTAATC,0.368
16,AGTTGCGG,0.0698
17,ACAGTTAA,0.244
18,AGCCGTGA,0.0154
19,ACGCCCTA,-0.107
20,ATAATGTG,0.159
21,ATCTGACG,-0.253
22,CGTATAAG,0.0155
23,CGATTAAG,0.27
24,CACCCTAG,-0.0297
25,AATAGATT,0.265

row,Sequence,PBM E-score
1,ACGACAGC,0.0111
2,AAGATACT,0.0974
3,AATGTGGC,0.0327
4,GCGAGCGA,-0.00447
5,ACCCTCAG,0.0505
6,ATCGCATG,0.109
7,AGTGAAAC,0.11
8,CCCATATA,-0.0671
9,GGGACACA,-0.0718
10,CATTATGC,0.0609
11,CCCATCCG,-0.162
12,ATATTCTC,0.267
13,CATATGAC,0.0313
14,GAGTTACA,0.144
15,GCACTTCA,0.0397
16,CGGATCTC,-0.125
17,CATCACCG,-0.204
18,GAGCCACC,-0.265
19,ATGCAAAA,0.239
20,TCTGAAAA,0.0719
21,CATATAAA,0.174
22,CTCTCGGA,0.104
23,CCTCGAAC,-0.101
24,AAGTCCAT,-0.0147
25,GACGCAAC,-0.0759

row,Sequence,PBM E-score
1,ATCCATCC,0.00179
2,ACAAGGTC,-0.00044
3,AAGCGGAA,0.0817
4,CATCATGC,-0.0129
5,GTAAGCCA,-0.121
6,ATTTCTTG,0.198
7,CCCTGTAC,-0.151
8,CAACCCAC,-0.0291
9,AACCCAAT,0.14
10,AATGGACA,0.157
11,GCGGAGAA,0.119
12,TGTTATAA,0.19
13,CCTCGTGA,-0.153
14,GTTAAGAA,0.0266
15,AGCTAGTG,0.0615
16,ATTCACGG,-0.0782
17,CGGTGAGC,-0.26
18,ATAGTGTC,0.108
19,CCGCTCGA,-0.0347
20,AACCGAAC,-0.0481
21,CGCAAGTA,0.072
22,CCTGTCTA,-0.128
23,CCTGGCGC,-0.123
24,AGTTCACG,-0.00254
25,CCGAGAAG,-0.0293

row,Sequence,PBM E-score
1,CCGACAAA,0.161
2,AAGTTCAC,-0.0124
3,CGCTTCGC,-0.0985
4,CAACTCCC,-0.0757
5,CAAAATCG,0.16
6,GATTACCC,0.0608
7,GATAGGCC,-0.185
8,ACGTCCCG,-0.356
9,CCTAAGGC,-0.375
10,GACCCGAA,-0.106
11,AGTTCTGG,0.14
12,CAATCATC,0.103
13,GCGAGACA,-0.0827
14,GATTCGCA,0.0873
15,ACCATGCA,-0.102
16,CAATCATG,-0.0368
17,AAGCCCAC,-0.126
18,CTTCGCCA,-0.19
19,ACCGCCAT,-0.0145
20,CTGGCCGA,-0.111
21,ACAATGGC,-0.113
22,GTACTGAA,0.173
23,AGACTTGC,-0.081
24,CGGATCCC,-0.135
25,ACGCGTCC,-0.313

row,Sequence,PBM E-score
1,AGCATTTA,-0.0525
2,CTGGCAGC,-0.251
3,CAAGCGCG,-0.0792
4,GGCTAATA,0.157
5,AGAAAGGG,-0.113
6,CGAGATCC,-0.0705
7,ACAAGCTG,-0.123
8,AGGAGGTG,-0.271
9,ATCGAGAA,0.241
10,GCGTAGCC,-0.0956
11,CATGGTCA,-0.0109
12,CACCTAAA,0.025
13,AAGCAGTA,-0.0835
14,CTAATTCC,0.0934
15,AGTCACGG,-0.025
16,AGGCGCAT,-0.0781
17,CACACGCC,-0.0219
18,CGCTTTGC,-0.0369
19,GTCTTCTA,0.0859
20,GGGACCTA,-0.267
21,AGAGTCTA,-0.16
22,CGCACACG,-0.153
23,ATTGTGAC,0.0813
24,GTCAAGAA,0.146
25,ATTTAAAA,0.169

row,Sequence,PBM E-score
1,CTGAGGGA,-0.121
2,GCAGTTTA,-0.0637
3,GTACGCAA,0.0124
4,CCCAAGTA,-0.0495
5,CCCGGCAC,-0.288
6,AATCAAGG,0.0922
7,CTAGCAGA,0.0468
8,AGCACCGC,-0.231
9,AGCTGAAG,-0.0473
10,AGGTGTTG,-0.152
11,TAGAAGCA,0.0548
12,GGAGTGAA,0.0658
13,GTGTCGGA,-0.0465
14,TCATTCAA,0.151
15,AACCATAA,0.127
16,ACCGCACC,-0.149
17,CAATAATA,0.292
18,CCCAAACC,0.0285
19,CAGCCTTA,-0.128
20,AAGTGGAA,0.0301
21,CGAACCTC,-0.0151
22,AACGGTGC,-0.268
23,ACTGGGCC,-0.134
24,GGGAATAA,0.355
25,ATAAAAAG,0.316

row,Sequence,PBM E-score
1,AAAGCGAC,0.0114
2,CCTATACA,0.154
3,ACGGGGGA,-0.131
4,ACGACCCG,-0.231
5,CCATCGCC,-0.218
6,CACGGTGC,-0.283
7,GGATTTGA,-0.0289
8,CGTCCCCA,-0.169
9,CCGCTATC,-0.0295
10,AATACGCC,-0.032
11,AAAGCACT,0.155
12,CTCTGCAC,-0.262
13,ACAAGGAT,0.123
14,GAATAATA,0.395
15,GACGGTTA,-0.192
16,CTGGTGAA,-0.0462
17,ACGGAACC,-0.0347
18,CTACGTAC,0.139
19,CATTATCG,0.0618
20,ATCGGTCA,0.0471
21,GGTATCAC,-0.0801
22,GGCATCAC,-0.144
23,ACAGATAC,0.264
24,ATACACAT,0.273
25,GTACAGCA,0.102

row,Sequence,PBM E-score
1,AATTCGGT,0.243
2,ACCTTAAA,-0.0552
3,AGCCTAGG,-0.192
4,AGGTTTTC,0.166
5,GTCACCTA,-0.287
6,GTCAGTCA,0.0403
7,CTGTATAC,0.108
8,ACGATTGC,0.158
9,ACTTAATC,0.275
10,CTGCACCC,-0.204
11,CTATTTTC,0.284
12,CGAGGAAA,0.177
13,ATGACGGC,-0.0175
14,GCGCTGAC,-0.0039
15,CATATACA,0.324
16,ACCGAGCT,-0.165
17,GGATGCCC,-0.246
18,CTAGGTAC,-0.0397
19,CATCCCAG,-0.109
20,CGCAGACA,0.0597
21,CATAGTGA,0.0482
22,ATGGTCAA,0.198
23,ATATTCCA,0.395
24,CGCTAAAG,0.0341
25,AAAAGTCA,0.0923

row,Sequence,PBM E-score
1,AAGGTACA,0.0441
2,CAAAGAGA,-0.0535
3,ACTTGTGC,-0.0733
4,TCGTTGAA,0.122
5,ATAACTCC,0.0699
6,AAATCCTC,0.0918
7,GCTGGCCC,-0.417
8,CTTTACAC,0.166
9,CAGCAGAG,-0.167
10,AAGCGTCC,-0.248
11,AGATATGC,0.0293
12,CCCGTAAA,0.0906
13,CATATTAG,0.202
14,AGGCTCCA,-0.0867
15,GACCTTCC,-0.151
16,GTATGTAA,0.222
17,GACCGGTC,-0.181
18,ACACGGAC,0.0335
19,CACAATTA,0.11
